Data published in ChEMBL document CHEMBL4888484, “Replenishing the malaria drug discovery pipeline: Screening and hit evaluation of the MMV Hit Generation Library 1 (HGL1) against asexual blood stage Plasmodium falciparum ,using a nano luciferase reporter read-out” (2022).
The whole screen tested about 150,000 compounds, of which about 540 (0.36%) showed an effect of 50% or more. The list shows a part of the results.

These compounds were tested on Plasmodium falciparum (assay: Primary screen in NF54 nanoGlo assay, in single point, at 2uM, 72h; a lower Z score goes with more inhibition). Details: timepoint 72 hour.
Format: functional, Erythrocyte

Row | Structure (SMILES) | % Inhibition | Z score
1 | CC[C@@H]1Oc2ccc(NC(=O)CC(C)(C)C)cc2CN(Cc2cccc(OC)c2)C1=O | 1% | -0.1
2 | O=C(N[C@H]1CC[C@@H](CO)CC1)c1ccc2ccncc2c1 | -5% | 0.8
3 | Cc1noc(C)c1CN(Cc1ccc(Cl)cc1)C1CC1 | -5% | 0.42
4 | O=C(Nc1ccc2c(c1)CCC2)c1cc2n(n1)CCN(Cc1cccc(Cl)c1)C2=O | -9% | 0.84
5 | CS(=O)(=O)c1ccc2nc(NC(=O)[C@@H]3COCC(=O)N3Cc3ccccc3)sc2c1 | -8% | 1.19
6 | Cc1cc(-c2ccccc2)[n+]2ccccc2n1 | -15% | 2.36
7 | O=C(C[C@H]1Cc2ccccc2C2(CCN(C(=O)c3ccccc3)CC2)O1)N1CCOCC1 | -15% | 1.92
8 | CC(C)c1nn(-c2ccccc2Cl)c(C(C)C)c1C(=O)NC1CC1 | -2% | 0.31
9 | Brc1cc2c(cc1Cn1nnc(-c3ccc4c(c3)OCO4)n1)OCO2 | -5% | 0.62
10 | CC[C@H]1C(=O)NCCN1C(=O)c1ccnn1C | -4% | 0.48
11 | Cc1ccc2c(Nc3cccc(Br)c3)c(C(=O)N3CCCCCC3)cnc2n1 | -3% | 0.46
12 | CCOC(=O)Cc1csc(NC(=O)N(C)[C@@H](C)CC#N)n1 | -6% | 0.93
13 | COc1cc2c(cc1OC)C(Nc1cc(C)ccc1C)=NC(C)(C)C2 | 34% | -4.42
14 | O=C1[C@@H]2CC[C@@H](c3ccccc3)N2C(=O)N1C1CCN(C2CCCC2)CC1 | -10% | 1.24
15 | Cc1ccc(NC(=O)Cc2nc(C)c(C(=O)NCc3ccccc3)s2)cc1F | -13% | 1.64
16 | Cc1noc([C@H](C)NC(=O)NCc2ncnn2C(C)(C)C)n1 | 12% | -1.69
17 | COc1ccc(-c2nc3c(s2)[C@@H](NCCC2(O)CCC2)CCC3)cc1 | -16% | 2.81
18 | CN(C)CCN1C(=O)N[C@@](Cc2cccc(F)c2)(C2CCN(C(=O)c3ccccc3F)CC2)C1=O | -5% | 0.73
19 | CC1=C(C)CN(C(=O)c2cccnc2C)CC1 | 0% | 0.03
20 | CNC(=O)[C@H](CC(C)C)NC(=O)c1scnc1C | -1% | 0.25
21 | CC(C)c1cc(C(=O)N(Cc2ccncc2)C[C@@H]2CCC(=O)N2)n(C)n1 | -3% | 0.38
22 | COc1ccc(-c2c3cnn(C(C)C)c3nc3[nH]c(=O)sc23)c(OC)c1 | -12% | 1.28
23 | CC(NC(C)c1ccc(F)cc1F)c1nc2c(s1)CCC2 (stereo not drawn) | -10% | 1.81
24 | Cc1cnc(CCN=C(N)N2CCCCCC2)nc1 | 4% | -0.62
25 | Cc1n[nH]c(C2CN(CC(C)(O)c3ccccc3)CCO2)n1 (stereo not drawn) | -5% | 0.57
26 | CC1CCN(C[C@H](O)Cn2ncc3ncccc3c2=O)CC1 | -9% | 1.19
27 | CN(CC(=O)N1CCc2ccccc2C1)c1ccc(F)c(F)c1 | -6% | 0.88

Row | Structure (SMILES) | % Inhibition | Z score
28 | Nc1cc(-c2cc(NCc3ccncc3)nc3[nH]ccc23)ncn1 | -3% | 0.37
29 | COc1nc2c(cc1CNC(=O)CCCC(C)C)C(=O)N(C1CCCC1)C2 | -11% | 1.48
30 | CCn1c(Cn2ncsc2=O)nc2c(F)cccc21 | -9% | 1.07
31 | CN(C(=O)[C@H]1[C@@H]2C[C@@H]3[C@H]1C(=O)O[C@@H]3C2)c1ccccc1Cl | -1% | 0.17
32 | COc1nc(C)nc(N(C)Cc2nccs2)c1C | -6% | 0.97
33 | C=CCc1ccccc1OCCN(C)Cc1ccc(CO)o1 | -10% | 2.06
34 | CCCCS(=O)(=O)N1CCC[C@H]1c1nn(CCC)c2c1COCC2 | -15% | 1.92
35 | C=CCC[C@@H](CN(C)CCN(C)C)Oc1nccc(C(F)(F)F)n1 | -5% | 0.9
36 | CCNC(=O)N(Cc1ccccc1OS(=O)(=O)c1ccc(OC)cc1)C[C@H]1CCCO1 | -11% | 1.2
37 | Cc1cc(NC(=O)C(=O)NCCc2ccc3c(ccn3C)c2)no1 | -11% | 2.03
38 | O=C(NCCCOc1ccc(F)cc1)c1ccncc1Cl | -8% | 0.84
39 | C[C@]1(O)CCN(C(=O)c2ccc(F)cc2Cl)C[C@H]1O | 7% | -0.86
40 | O=C1N[C@H]2C[C@@H](C(=O)NC[C@H]3O[C@H](CCOc4cc(-c5ccccc5)ccc41)CC[C@@H]3O)N(Cc1c[nH]cn1)C2 | 9% | -1.01
41 | CCn1ncnc1CN(C)C(C)C1CN(Cc2ccccc2)CCO1 (stereo not drawn) | 2% | -0.26
42 | CCOC(=O)N1CC[C@H](NC2(c3cccc(Cl)c3)CC2)C1 | -14% | 2.65
43 | O=C(NCc1ccc(N2CCCC2)cc1)c1ccccc1F | 4% | -0.41
44 | Nc1ccc(C(=O)c2ccc(Oc3ccccc3)c(N)c2)cc1 | -10% | 1.48
45 | Cc1ccc(-c2nnc(-c3cccnc3N3CCC4(CC3)OCCO4)o2)cc1 | -19% | 1.86
46 | O=C(Nc1cccc(S(=O)(=O)NC2CC2)c1)C(=O)NC1CCCC1 | -10% | 1.61
47 | Cc1ccnc(-n2nccc2NC(=O)[C@H]2CCC(=O)N2C)c1 | -9% | 1
48 | CC[C@@](C)(CNC(=O)c1c(C)ccn1C)NC(=O)c1c(C)ccn1C | -8% | 0.8
49 | O=C(O)c1cnc(N2CC3CCC2C3)s1 (stereo not drawn) | 1% | -0.12
50 | O=C1CCCN1CC(=O)N1CCO[C@@H](CCCc2ccccc2)C1 | -4% | 0.69
51 | CC(C)OC[C@H]1CN(C(=O)c2cnn(-c3ccncc3)c2)CCO1 | -5% | 0.65
52 | Cc1cc(-c2ccc(C)c(S(=O)(=O)NCCN(CC(C)C)CC(C)C)c2)on1 | -1% | 0.09
53 | O=C(COCC(F)(F)F)N1CCC[C@H]1c1cccs1 | 5% | -0.64
54 | Cc1ccc2oc(C(=O)N3CCO[C@H]4COCC[C@H]43)cc2n1 | 1% | -0.26
